Reference: the supplement of paper PMC11417369
The list shows a part of the results.

test system: PF3D7_0420300 AP2 domain 1 (GST-tagged); test: gcPBM binding intensity (ln(normalized median fluorescence intensity)); higher = stronger DNA binding
Summary of the method: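 After 1 h on an Agilent 4 × 180k array of primer-extended double-stranded 36-bp intergenic genomic probes and negative controls, bound GST-tagged P. falciparum DNA-binding domains were detected with Alexa488 anti-GST antibody and scanned at 488 nm. The domains had been expressed in E. coli, and binding took place in 1× PBS with 1% milk, 0.2 mg/ml BSA, 0.5% salmon testes DNA and 0.03% Triton X-100. Binding intensity is the highest Masliner-normalised natural-log median intensity across replicate spots of either probe orientation.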

Going from “TTATCTAGTACATACATACACACAACCATGTTATGA [CACACA_site3988]” to “TACATAAATACATACACACACATATAACCAATGTAG [CACACA_site5243]”, the “gcPBM binding intensity (ln)” value rises from 9.46 to 10.

First: TTTACATTTTAGGAAGTGCATATAATAAATACTATC
Second: CACATATATACACATACACACACACCCATACACCCA [CACACA_site8505]
The “gcPBM binding intensity (ln)” value of the first is lower: 9.14 for the first, 10.2 for the second.

Compared with “AGAGTACAAGTAAATACACACATATATATGAAAATA [CACACA_site1079]”, “ATCACATTCCACGGTACACACTAAAAGAAAAATCAG [CACACA_site5907]” is lower in “gcPBM binding intensity (ln)” value: 9.8 for the first, 9.47 for the second.

First: ATTTATATTTAATATACACACATTATTTTTTTATAT [CACACA_site574]
Second: TATAATATGACAAGAAGTACATATATTTACATATAT [XGTACX_site1571]
The “gcPBM binding intensity (ln)” value of the first is higher: 9.57 for the first, 9.19 for the second.

Going from “ATATAATATTTTAGAGTGCACCGATAACAATAAATA [GTGCAC_site9754]” to “TATATGTGGGTTTTTTTTATGTGTTTTTCTTTTTTT [CACACA_negctrl_site936]”, the “gcPBM binding intensity (ln)” value rises from 9.39 to 9.85.

Going from “CATTTCATTAATAAATGTACTTGTGAAGAGAAAAAG [XGTACX_site3115]” to “AAAAGATAAAAAGAAGTGCATAATAGGAACAAATAT [GTGCAC_site9717]”, the “gcPBM binding intensity (ln)” value rises from 8.98 to 9.84.

Going from “ACAAAATTTACAAAATGTACAAAATATACAAAATGT [XGTACX_site3543]” to TAAGATATAAAAAATGTGCACATTAAAGTATTAATT, the “gcPBM binding intensity (ln)” value falls from 9.33 to 9.29.

First: TGTTATTCTGCATATACACACAAATAACAATTTAAA [CACACA_site6943]
Second: TCTTATGATGGAATGTTAAATATTACATTTTGTTTA [TGCATGCA_negctrl_site503]
The “gcPBM binding intensity (ln)” value of the first is higher: 9.32 for the first, 9.1 for the second.

Compared with “ATGAACATCCAATATACACACATATATATTTATATT [CACACA_site829]”, “TAATGTTTCAAAATTTAATATACTACAAATATTATA [TGCATGCA_negctrl_site336]” is lower in “gcPBM binding intensity (ln)” value: 9.62 for the first, 8.88 for the second.

Compared with “CAAAAAAAAAAAAAAACACACATTAAATTATAAAGA [CACACA_site2613]”, “TTTATATAGAAACACACACACAAAAAAAAAAAAAAA [CACACA_site2646]” is higher in “gcPBM binding intensity (ln)” value: 9.45 for the first, 9.76 for the second.

First: TTACAAAAAAAAAGGCGCGGATGGGGGCAATAGCAA [CACACA_negctrl_site238]
Second: TTTTTCTTTCTATTTATCAATATTAAAAAAAAAAAA [CACACA_negctrl_site1629]
The “gcPBM binding intensity (ln)” value of the first is higher: 10 for the first, 8.41 for the second.

Compared with “TTACTCATGAAAGATACACACATTCGTTATTTATAT [CACACA_site7517]”, “TATACATGTATATATTGTACATATGTTTTTTTTACA [XGTACX_site3300]” is lower in “gcPBM binding intensity (ln)” value: 9.54 for the first, 9.32 for the second.

Compared with “TTTTTTCAAATTTTCTTTTTTCTTTTGTTTTTTTTG [CACACA_negctrl_site380]”, “TTTTTATAATGATACATATATTATTTTATTCTTAAT [CACACA_negctrl_site124]” is lower in “gcPBM binding intensity (ln)” value: 9.19 for the first, 9.01 for the second.

Compared with “CACAAAATAAATTAAACACACAACATCATATATGTA [CACACA_site846]”, “GAAGAAGTTTAAAAAGCACACAAAAAAAAAAAAAAA [CACACA_site9088]” is lower in “gcPBM binding intensity (ln)” value: 9.68 for the first, 8.84 for the second.

Going from “TAAATTATTATCCCCTCACACACAAAAATAAAAAGA [CACACA_site2886]” to “TATTTATAAACATACGCACACATTAATATATATATA [CACACA_site9314]”, the “gcPBM binding intensity (ln)” value falls from 9.93 to 9.51.

First: AGATATTCTACTATGTGTACATATATATATATAATT [XGTACX_site5060]
Second: ATTATTATTAATCTTGTGCACATATATTTTAATTAG
The “gcPBM binding intensity (ln)” value of the first is higher: 9.4 for the first, 9.33 for the second.

Going from “CTTGTAGATATAAAATGTACAAAAATAAATTGCACA [XGTACX_site4409]” to “ATTATATAGAATTGTACATGCGAATTGTATAACGAT [TGCATGCA_site125]”, the “gcPBM binding intensity (ln)” value rises from 9.09 to 9.4.

Compared with “TATAAACGTATAATATGTACACACACATATATACAA [XGTACX_site1686]”, “AAAAAAAAAAAAAAAAATATATTTATGAAATAAAAA [TGCATGCA_negctrl_site262]” is lower in “gcPBM binding intensity (ln)” value: 9.69 for the first, 8.93 for the second.

First: TATTTTTTTTTTTTTTTTTTTTTTATATATACATAT [CACACA_negctrl_site23]
Second: TTTCTATTCCATTCAACACACAAAAATGTATGCTTT [CACACA_site1072]
The “gcPBM binding intensity (ln)” value of the first is lower: 9.26 for the first, 9.44 for the second.

Going from “AATGGATATTTCTTTATATATATCTTATTTGATTAT [XGTACX_negctrl_site284]” to “TATAAATATCTGAATTGTACAGGTGAAAAAAAAAAT [XGTACX_site1867]”, the “gcPBM binding intensity (ln)” value rises from 9.24 to 9.54.

Compared with “TTTTTTATTATTATTATTTTTTATGTATAATAATGT [CACACA_negctrl_site631]”, “TTACTTTTTTTTTTATGTACTTATATTTTTTACACT [XGTACX_site3503]” is higher in “gcPBM binding intensity (ln)” value: 9.2 for the first, 9.44 for the second.

First: TATGAATACATTTGTTGTACTTAAATTTCCTTTATT [XGTACX_site5374]
Second: AAATAATTTATGCATACACACATATATATATATATA [CACACA_site4020]
The “gcPBM binding intensity (ln)” value of the first is lower: 9.21 for the first, 9.46 for the second.

“TAGATATATAAATACACACACATACACAAAAAAAAA [CACACA_site7652]” was tested, and the “gcPBM binding intensity (ln)” value was 10.
